PubChem BioAssay AID686978 (National Center for Advancing Translational Sciences (NCATS), 2013)
Where “and” joins values, the source holds several entries; their conditions need not be identical. Equal entries are not always repeated. Hit rate of the full screen: of about 420,000 compounds, about 64,000 (15%) were called active. Inconclusive means that the source gave no clear call. Such entries were picked first, then a sample of the others. The call rests on the fitted dose curve; in most records, active means well fitted inhibition curve with a large enough effect; inconclusive means small, poorly fitted or top-dose-only effect; inactive means flat fitted curve, though single readings scatter. Potencies beside an inconclusive call are fits to weak or partial responses and may not hold up.

experiment: qHTS for Inhibitors of human tyrosyl-DNA phosphodiesterase 1 (TDP1): qHTS in cells in absence of CPT; conditions: DT40 Tdp1-/- hTDP1 cells, no CPT, ATP luminescence, 48 h; activity change, negative = growth inhibition: at 46.2 µM (top of the series) unless noted; further: nearly all actives have a fitted effect of over 55% in size
Outline: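 Compound effects on proliferation are scored in DT40 Tdp1-/-;hTDP1 cells in the absence of CPT. ATP levels (CellTiter-Glo luminescence) are recorded after a ≥48 hr, 37 °C incubation.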
On the % scale 0 is the no-effect control and ±100 the full control effect; potency means the concentration at half of the fitted maximal effect; tags describe the fitted curve by direction and shape.

Structure (SMILES) | Potency | activity change, negative = growth inhibition
CC1(C(=O)Nc2cccc(OC(F)(F)F)c2)Cc2c(-c3cccc(C(F)(F)F)c3)ccnc2O1 (configuration not stated) | inconclusive: 25.9 µM [inhibitor, single point] | 
CCC1CN(C(=O)N2CCC(C(=O)NCc3ccc(C)o3)CC2)c2cc(C)ccc2O1 (configuration not stated) | inconclusive: 29.1 µM [inhibitor, single point] and inconclusive: 16.4 µM [inhibitor, partial curve] | 
COc1ccc(-c2noc(CN(Cc3nccn3C)C(C)C)n2)cc1 | inconclusive: 18.4 µM [inhibitor, single point] | 
COc1ccccc1N1N=C(c2cccs2)CC1c1ccccc1 (configuration not stated) | inconclusive: 16.4 µM [inhibitor, single point] | 
Cc1cc(C=O)c(C)n1-c1ccc(N2CCCC2)c([N+](=O)[O-])c1 | active: 25.9 µM | 
COCCn1c(=S)[nH]c2cc(C(=O)N3CCN(C4CCCCC4)CC3)ccc2c1=O | inconclusive: 23.1 µM [inhibitor, single point] | 
CN(Cc1ccccc1)C(=O)CCSc1nc(-c2ccc3c(c2)OCO3)cc(C(F)(F)F)n1 | active: 18.4 µM | 
CC(=O)NC(c1ccccc1)c1nc(-c2cccc(CO)c2)cs1 (configuration not stated) | inactive | 
COC(=O)c1ccc(C(NC(=O)OCc2ccccc2)/C(F)=C/[C@@H](C)C(=O)NCc2ccc(-c3ccccc3)cc2)cc1 (some centres not stated) | inconclusive: 23.1 µM [inhibitor, single point] | 
COc1cccc(N(CC(=O)Nc2cccc(C(C)=O)c2)S(C)(=O)=O)c1 | inactive | 
CCCS(=O)(=O)NC(=O)C1(C)CCCN(C(=O)c2c(F)cccc2F)C1 (configuration not stated) | inactive | 
COc1ncc2nc(C)c(=O)n(Cc3cccs3)c2n1 | inconclusive: 23.1 µM [inhibitor, single point] | 
COc1ccc(NC(=O)c2c(C)nn(Cc3ccccc3)c2Cl)cc1S(=O)(=O)N1CCOCC1 | inactive | 
Cc1ccc(N(Cc2ccccc2)C(=O)CSC(C)C(=O)Nc2cc(C)on2)cc1 (configuration not stated) | inconclusive: 29.1 µM [inhibitor, single point] | 
CCN(c1ccc(OC)cc1)S(=O)(=O)c1cc(-c2cc(C)no2)ccc1OC | inconclusive: 20.6 µM [inhibitor, single point] | 
CC(=O)N1c2ccc(S(=O)(=O)NCCC(=O)NCCc3ccc(C)cc3)cc2CC1C (configuration not stated) | inconclusive: 29.1 µM [inhibitor, single point] | 
C/C=C/CSc1nc2c(c(=O)[nH]c(=O)n2C)n1CCC | inconclusive: 5.8 µM [inhibitor, partial curve] | 
Cc1ccc(-n2nc3c(=O)n(CCCC(=O)NCc4ccco4)nc(C)c3c2C)cc1 | inactive | 
C=CCNC(=S)NNC(=O)COc1ccc2cc(Br)ccc2c1 | active: 8.2 µM | 
C1=CC2(C=C1)OC21CCC2(C=CC3(C2)OC3C2CCCCC2)CC1 (configuration not stated) | inconclusive: 1.84 µM [inhibitor, partial curve, poor fit] | 
Cc1cccc(-n2cc(-c3ccccc3)[nH]c2=S)c1 | inconclusive: 29.1 µM [inhibitor, single point] | 

Structure (SMILES) | Potency | activity change, negative = growth inhibition
Cc1onc(-c2ccccc2Cl)c1C(=O)Nc1ccccc1N1CCOCC1 | inconclusive: 18.4 µM [inhibitor, single point] | 
OC(c1ccc(F)cc1)c1nc(-c2ccc(Cl)cc2)cs1 (configuration not stated) | inconclusive: 32.6 µM [inhibitor, partial curve, poor fit] | 
COc1ccc(CCNC(=O)CCc2ccc(S(=O)(=O)NCC(C)C)cc2)cc1 | inconclusive: 29.1 µM [inhibitor, single point] | 
CCN(CC)S(=O)(=O)c1ccc(O)c(C(=O)OCC(=O)NC23CC4CC(CC(C4)C2)C3)c1 | inactive | 
CC(=O)N1CCCc2cc(S(=O)(=O)N3CCC(C(=O)NCCC(C)C)CC3)ccc21 | inactive | 
COc1ccc(Nc2nc(N3CCOCC3)nc(N3CCOCC3)n2)cc1 | inconclusive: 25.9 µM [inhibitor, single point] | 
CCn1c(=O)c(C(=O)CN2CC(C)OC(C)C2)c(N)n(Cc2ccccc2)c1=O (configuration not stated) | inconclusive: 20.6 µM [inhibitor, single point] | 
O=C(COC(=O)/C=C/c1cccs1)NC1CC1 | inconclusive: 0.517 µM [inhibitor, full curve, poor fit] | 
CN(Cc1cc(Cl)cc(Cl)c1O)Cc1c(O)ccc2ccccc12 | inconclusive: 20.6 µM [inhibitor, partial curve] | 
CN1CCN(C(c2ccccc2)c2sc3nc(-c4ccco4)nn3c2O)CC1 (configuration not stated) | inactive | 
COc1cccc(NC(=O)c2cc([N+](=O)[O-])ccc2NCc2cccnc2)c1 | inconclusive: 29.1 µM [inhibitor, single point] | 
CC(=O)Nc1ccc(C=NN=C2c3ccccc3-c3ccccc32)cc1 | inconclusive: 18.4 µM [inhibitor, single point] | 
O=C(NCCCN1CCN(CCCNC(=O)c2ccccc2F)CC1)c1ccccc1F | inactive | 
COc1ccc(Cl)c(-c2cc(C(=O)Nc3ccc(C)c(NS(C)(=O)=O)c3)[nH]n2)c1 | inconclusive: 16.4 µM [inhibitor, single point] | 
COc1ccc(CN(C)S(=O)(=O)c2nnc(NC(=O)c3ccccc3)s2)cc1OC | inconclusive: 29.1 µM [inhibitor, single point] | 
CC(NC(=O)/C(C#N)=C/c1ccc(N2CCOCC2)cc1)c1ccccc1 (configuration not stated) | active: 9.2 µM | 
O=c1[nH]c(SCc2ccccc2Cl)nc2c1CCC2 | active: 29.1 µM | 
COc1ccc(/C=C/CN2CCCC(C(=O)c3ccc(OC)c(F)c3)C2)cc1 (configuration not stated) | inconclusive: 20.6 µM [inhibitor, partial curve] | 
CCCCCn1cnnc1SCC(=O)c1ccc2c(c1)OCO2 | inconclusive: 29.1 µM [inhibitor, single point] | 
Cc1nc(CS(=O)(=O)c2ccccc2)cc(Sc2ccccc2Cl)n1 |  | inconclusive: -33.5% [inhibitor]
O=C(CNC(=O)c1cccs1)N/N=C/c1c[nH]c2ccccc12 | inconclusive: 23.1 µM [inhibitor, single point] | 
